The campaign covered roughly 52,000 compounds. About 4,300 (8.3%) were called active. Rule as the data show it: active = survival mostly below about 52% (no sharp cut-off); inactive = mostly above about 56%. Some of the results follow.

The test deals with DeltatarO mutant. Kind of test: growth inhibition of S. aureus wild type versus tarO mutant, primary screen, teichoic acid synthesis inhibitors, RN4220, OD600 (AID 463173). The note with it: OD600, 18 h, active compounds read low, screened at 18.75 µg/mL (by protocol).
`COC(=O)CCNC(=O)N1CCN(c2nnc(C)c3c(C)n(-c4ccccc4)nc23)CC1`: the survival is inactive: 95%.

`COc1cc(C(=O)NCc2nc(-c3ccc(Cl)cc3)no2)cc(OC)c1OC`: the survival is inactive: 59%.

Consider `COc1cccc(CNC(=O)Cn2cccc2C(=O)c2ccccc2)c1`, for which the survival was inactive: 87%.

Consider `COc1ccc(C(=O)N2CCN(c3nc4c(OC)cccc4s3)CC2)cc1OC`, for which the survival was inactive: 72%.

On to `COc1ccc(OC)c(-n2c(-c3cc(-c4ccco4)[nH]n3)n[nH]c2=S)c1`, for which the survival is inactive: 70%.

`O=C(NCCCN1CCOCC1)C1CC(c2ccccc2O)=NO1` (stereo not drawn): the survival was inactive: 97%.

As to `O=C(CSc1nc2ccsc2c(=O)n1-c1ccc(Br)cc1)NCc1ccc(Cl)cc1`, the survival was inactive: 74%.

On to `COc1cccc(-c2nc(CS(=O)(=O)CC(=O)Nc3ccc(C)c(Cl)c3)c(C)o2)c1`, for which the survival is inactive: 98%.

`COc1ccc(CCNC(=O)Cc2ccc(NC(=O)N3CCSc4ncccc43)cc2)cc1OC`: the survival is inactive: 73%.

As to `Cc1cccc(NC(=O)c2cc3c([nH]c2=O)CC(c2ccccc2)CC3=O)c1` (stereo not drawn), the survival was active: 20%.

In the case of `Cc1ccc(N2CC(NC(=O)C3CCCCC3)CC2=O)cc1` (stereo not drawn), the survival is inactive: 100%.

`O=C(NCc1ccco1)c1c2c(nc3ccccc13)-c1ccccc1CC2`: the survival was inactive: 69%.

With `COc1ccc(NC(=O)CSCc2cc(=O)c3cc(Cl)ccc3[nH]2)cc1`, the survival is inactive: 67%.

On to `Cc1cccc(C(=O)Nc2cc(-c3ccccc3F)nn2-c2ccccc2)c1`, for which the survival is inactive: 72%.

With `CCOc1ccc(C2CC(=O)Nc3c2c(=O)[nH]c2ncnn32)cc1` (stereo not drawn), the survival is inactive: 66%.

As for `CCn1c(CNC(=O)c2ccc(OC)cc2)nnc1SCC(=O)Nc1ccc(F)cc1`, the survival was inactive: 130%.

As to `CCc1ccc(C(=O)c2cn(CC(=O)Nc3ccc(F)cc3)c3ccc(F)cc3c2=O)cc1`, the survival is inactive: 58%.

For `COc1cc(NS(=O)(=O)c2cc3[nH]c(=O)[nH]c3cc2C)cc(OC)c1OC`, the survival is active: 37%.

As to `CCCC1(C)NC(=O)c2ccccc2O1` (stereo not drawn), the survival was inactive: 75%.

For the molecule `CCOc1ccc(NC(=O)C2CC(=O)NC(N3CCCCC3)=N2)cc1` (stereo not drawn), the survival was inactive: 81%.

As for `CCc1ccc(CNC(=O)C2COc3ccccc3C2)cc1` (stereo not drawn), the survival is inactive: 81%.

As for `Cc1ccc2c(c1)c(=O)c1ccccc1n2CCCC(=O)Nc1ccc(C)c(C)c1`, the survival is active: 43%.

On to `Cc1ccc(COC(=O)c2[nH]c3c(c2C)C(=O)CC(c2ccc(Cl)cc2)C3)cc1` (stereo not drawn), for which the survival was inactive: 102%.

For the molecule `CC(C)OC(=O)c1ccc(NC(=O)CSc2nc(-c3cccs3)cc(C(F)(F)F)n2)cc1`, the survival is inactive: 48%.

`CC(C)CC(=O)n1nc(-c2ccco2)nc1NCc1ccc(Cl)cc1`: the survival was inactive: 77%.

As for `CC1CCCCN1C(=O)CSc1nnc(CNc2ccc(Cl)cc2)o1` (stereo not drawn), the survival is inactive: 91%.

With `O=C1CCC(=O)N1CN1CCN(c2ccccc2)CC1`, the survival was inactive: 104%.

Regarding `Cc1ccc2c(c1)-c1c(cnc3cc(-c4ccc(Cl)cc4)nn13)CO2`, the survival is inactive: 52%.

`Cc1ccc(CCNC(=O)c2sc3nc4n(c(=O)c3c2C)CCCC4)cc1`: the survival was inactive: 62%.

As for `Cc1ccc2onc(CNC(=O)N3CCN(c4cc(Cl)ccc4C)CC3)c2c1`, the survival was inactive: 48%.

`CC(CNC(=O)c1cc2cc(S(=O)(=O)N3CCCCC3)ccc2n1C)c1ccccc1` (stereo not drawn): the survival was inactive: 81%.

On to `COc1ccc(OC)c(CCNC(=O)c2cc3cccc4c3n2CCS4)c1`, for which the survival was inactive: 80%.

As to `Cc1ccc(C)c(N2CCN(S(=O)(=O)c3ccc(F)c(C(=O)Nc4ccc(Cl)cc4Cl)c3)CC2)c1`, the survival is inactive: 96%.

Consider `CC(O)Cn1c(Br)nc2c1c(=O)n(C)c(=O)n2C` (stereo not drawn), for which the survival is inactive: 101%.

For `Cc1cc2n(n1)CCCN2C(=O)Nc1ccc(C)c(Cl)c1`, the survival was inactive: 79%.

Consider `CN(c1ccccc1)S(=O)(=O)c1nnc(NC(=O)c2cccs2)s1`, for which the survival is inactive: 43%.

Turning to `CCN(Cc1ccccc1)C(=O)CCS(=O)(=O)c1cc(Br)cc2c1N(C(=O)C1CC1)CC2`, the survival is inactive: 73%.

With `CCOC(=O)c1c(C)oc2ccc(N(C(=O)c3ccncc3)S(=O)(=O)c3ccc(F)cc3)cc12`, the survival was active: 28%.

With `CCCSc1ncc(Cl)c(C(=O)Nc2sc3c(c2C(N)=O)CCCC3)n1`, the survival was active: 46%.

For `Cc1ccccc1CNC(=O)Cc1csc2ccccc12`, the survival was inactive: 85%.

As for `COc1ccccc1NC(=O)CCNS(=O)(=O)c1ccc2c(c1)CCN2C(=O)C1CC1`, the survival is inactive: 102%.

With `CCNc1nc(OCC(F)(F)F)nc(N(c2ccccc2)c2ccccc2)n1`, the survival was inactive: 74%.

For the molecule `COC(=O)c1ccc(-n2nnc(-c3nsc(NC(=O)c4ccc(Cl)cc4)n3)c2C)cc1`, the survival is inactive: 65%.

Turning to `Cc1ccccc1CNCCSc1nnnn1C`, the survival is inactive: 84%.

For `CC1CCN(S(=O)(=O)c2ccc3c(c2)oc(=O)n3CC(=O)N2CCCCC2)CC1`, the survival is inactive: 66%.

With `O=C(Nc1ccc(O)c(-c2nc3ccccc3o2)c1)c1ccc(-c2cccc(Cl)c2)o1`, the survival was inactive: 49%.

`Cc1cccc(C)c1NC(=O)c1nc(SC(C)C)ncc1Cl`: the survival was inactive: 105%.

`Cc1cc(C)cc(N(CC(=O)Nc2ccc(C)cc2Cl)S(=O)(=O)c2c(C)[nH]c(=O)[nH]c2=O)c1`: the survival is inactive: 58%.

Regarding `COCCCNC(=O)C1CCN(C(=O)c2ccc(-n3ccc4ccccc43)s2)CC1`, the survival was inactive: 74%.

On to `CCOc1ccccc1NC(=O)Cn1c(=O)n(CCCCC(=O)NCCCOC)c(=O)c2ccccc21`, for which the survival was inactive: 149%.

On to `CCc1ccccc1N(C)C(=O)c1cc2c(Cl)nc3ccc(C)cc3c2s1`, for which the survival was active: -4%.

Regarding `Cc1ccc2[nH]c3c(=O)n(CC(=O)NCCCN4CCN(c5ccc(F)cc5)CC4)ncc3c2c1`, the survival was inactive: 85%.

With `N#Cc1ccccc1Cn1c(=O)n(-c2ccccc2)c(=O)c2c3c(sc21)CCC3`, the survival is inactive: 82%.

For the molecule `O=C(NCc1cccc(F)c1)C1CCN(c2nn3cc(-c4ccc(F)cc4)nc3s2)CC1`, the survival was inactive: 87%.

Turning to `COc1ccc(NC(=O)c2ccco2)cc1NC(=O)COc1cc(C)ccc1C(C)C`, the survival was inactive: 63%.

With `CC(=O)N1c2ccccc2CC1C(=O)N1CCN(c2cc(Cl)ccc2C)CC1` (stereo not drawn), the survival was inactive: 83%.

`CS(=O)(=O)N1CCN(S(C)(=O)=O)CC1`: the survival was inactive: 62%.

Turning to `Cc1nc(N)c(S(=O)(=O)c2ccccc2)c(Nc2ccc(Br)cc2)n1`, the survival is inactive: 87%.

The values above are taken from PubChem BioAssay AID463173 (ICCB-Longwood Screening Facility, Harvard Medical School, 2010).
